Our source for the binding values is paper PMC5732248.

Amino acid sequences for entries named in this document (tags omitted). A change or cut given only in a name is not applied to a line headed by its entry. Chains listed by the source or under a name are the forms on record and can include a tag or linker. Residues count along the entry.
UniProt Q6PER3: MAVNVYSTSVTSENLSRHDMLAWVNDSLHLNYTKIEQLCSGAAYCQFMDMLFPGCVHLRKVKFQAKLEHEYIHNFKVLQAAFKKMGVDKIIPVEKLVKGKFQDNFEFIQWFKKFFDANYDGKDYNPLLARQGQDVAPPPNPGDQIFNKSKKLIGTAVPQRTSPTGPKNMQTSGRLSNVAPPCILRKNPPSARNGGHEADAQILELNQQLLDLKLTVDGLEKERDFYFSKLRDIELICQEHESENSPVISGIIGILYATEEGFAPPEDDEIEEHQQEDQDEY
UniProt Q9P246: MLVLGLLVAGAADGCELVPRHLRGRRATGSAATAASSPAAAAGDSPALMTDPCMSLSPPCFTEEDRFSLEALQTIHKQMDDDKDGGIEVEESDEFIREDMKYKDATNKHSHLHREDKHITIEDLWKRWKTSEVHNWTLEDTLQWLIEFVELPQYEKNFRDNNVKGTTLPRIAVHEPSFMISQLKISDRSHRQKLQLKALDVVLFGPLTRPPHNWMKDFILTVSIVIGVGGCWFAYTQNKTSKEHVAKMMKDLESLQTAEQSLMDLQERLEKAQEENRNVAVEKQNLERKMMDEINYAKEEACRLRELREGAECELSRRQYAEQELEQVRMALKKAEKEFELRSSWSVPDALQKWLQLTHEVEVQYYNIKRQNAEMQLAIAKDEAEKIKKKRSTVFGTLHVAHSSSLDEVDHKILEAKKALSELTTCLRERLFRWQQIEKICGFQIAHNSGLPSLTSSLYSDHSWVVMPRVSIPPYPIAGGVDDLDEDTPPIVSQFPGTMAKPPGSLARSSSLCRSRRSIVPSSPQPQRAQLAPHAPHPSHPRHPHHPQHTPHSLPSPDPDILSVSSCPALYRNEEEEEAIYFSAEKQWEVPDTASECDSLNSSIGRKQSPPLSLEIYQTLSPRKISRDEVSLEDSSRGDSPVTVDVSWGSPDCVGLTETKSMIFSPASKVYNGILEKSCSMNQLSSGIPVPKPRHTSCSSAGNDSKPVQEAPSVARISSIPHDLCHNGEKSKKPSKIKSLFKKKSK
GST-STIM2-CT (wild type STIM2 cytoplasmic part, aa248-C terminal): residues 248-746 of Q9P246
YFP-STIM2-IP/NN (I688N, P689N) (Q9P246, form named): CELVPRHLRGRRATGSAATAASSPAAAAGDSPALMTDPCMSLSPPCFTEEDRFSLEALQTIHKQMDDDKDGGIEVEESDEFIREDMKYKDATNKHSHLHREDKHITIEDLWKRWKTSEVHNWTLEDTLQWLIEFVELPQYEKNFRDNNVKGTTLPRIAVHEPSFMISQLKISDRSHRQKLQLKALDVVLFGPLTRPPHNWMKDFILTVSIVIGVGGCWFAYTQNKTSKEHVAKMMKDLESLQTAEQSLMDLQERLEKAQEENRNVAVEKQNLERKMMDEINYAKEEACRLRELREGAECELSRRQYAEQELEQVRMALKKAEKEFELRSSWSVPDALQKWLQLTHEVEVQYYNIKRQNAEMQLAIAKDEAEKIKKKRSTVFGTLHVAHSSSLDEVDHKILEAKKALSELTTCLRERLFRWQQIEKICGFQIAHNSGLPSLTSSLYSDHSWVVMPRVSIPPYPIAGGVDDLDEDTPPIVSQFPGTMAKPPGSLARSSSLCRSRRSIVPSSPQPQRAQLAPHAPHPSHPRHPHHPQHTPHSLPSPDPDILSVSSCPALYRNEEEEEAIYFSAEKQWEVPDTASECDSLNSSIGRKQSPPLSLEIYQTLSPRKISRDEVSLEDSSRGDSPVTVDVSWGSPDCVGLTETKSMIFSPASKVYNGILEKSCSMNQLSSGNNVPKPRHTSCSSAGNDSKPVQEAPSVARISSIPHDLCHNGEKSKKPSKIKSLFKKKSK
GST-STIM2-IP/NN-CT (I688N, P689N) (Q9P246, form named): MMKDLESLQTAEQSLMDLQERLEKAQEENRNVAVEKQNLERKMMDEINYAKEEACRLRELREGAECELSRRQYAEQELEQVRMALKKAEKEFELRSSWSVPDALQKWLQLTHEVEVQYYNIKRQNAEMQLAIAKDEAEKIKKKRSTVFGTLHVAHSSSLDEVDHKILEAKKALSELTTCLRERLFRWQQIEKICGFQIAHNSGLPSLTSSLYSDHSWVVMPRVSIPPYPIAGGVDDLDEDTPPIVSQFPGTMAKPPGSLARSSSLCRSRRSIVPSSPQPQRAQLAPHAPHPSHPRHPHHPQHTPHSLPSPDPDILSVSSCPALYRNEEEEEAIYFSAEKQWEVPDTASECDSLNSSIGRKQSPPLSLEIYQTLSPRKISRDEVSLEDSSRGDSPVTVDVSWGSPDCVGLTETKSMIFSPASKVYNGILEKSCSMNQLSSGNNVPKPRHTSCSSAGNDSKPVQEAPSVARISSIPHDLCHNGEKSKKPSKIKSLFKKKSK
UniProt P83093, residues 15-746: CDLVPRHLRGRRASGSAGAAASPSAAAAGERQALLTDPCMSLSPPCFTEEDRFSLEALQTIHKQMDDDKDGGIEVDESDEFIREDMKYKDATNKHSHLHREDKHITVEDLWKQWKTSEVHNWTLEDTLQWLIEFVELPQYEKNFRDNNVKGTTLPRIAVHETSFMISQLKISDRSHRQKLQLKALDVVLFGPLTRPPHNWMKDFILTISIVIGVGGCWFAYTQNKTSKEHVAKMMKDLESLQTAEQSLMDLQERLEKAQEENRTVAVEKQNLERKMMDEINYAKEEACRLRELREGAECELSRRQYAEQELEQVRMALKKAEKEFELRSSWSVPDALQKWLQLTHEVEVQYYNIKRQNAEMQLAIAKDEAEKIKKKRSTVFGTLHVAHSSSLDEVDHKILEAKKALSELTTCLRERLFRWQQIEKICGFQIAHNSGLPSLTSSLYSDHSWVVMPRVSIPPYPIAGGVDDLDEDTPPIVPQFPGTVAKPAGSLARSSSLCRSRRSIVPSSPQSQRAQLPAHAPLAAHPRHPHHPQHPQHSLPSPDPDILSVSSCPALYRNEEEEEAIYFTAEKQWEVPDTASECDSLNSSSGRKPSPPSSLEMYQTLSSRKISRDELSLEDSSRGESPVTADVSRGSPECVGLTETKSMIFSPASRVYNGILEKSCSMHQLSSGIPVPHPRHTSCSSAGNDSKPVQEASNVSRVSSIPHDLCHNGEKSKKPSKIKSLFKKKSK

Results are given in words; binding and its absence hold for the method and conditions named. In cells and extracts the contact can be indirect. Some entries that bind do so weakly or less than the wild type.

Experiment [1] concerns the target EB3 protein (mouse (endogenous in brain synaptosomes)) (UniProt Q6PER3). Kind of experiment: co-IP; whole brain crude synaptosomal fraction (P2) solubilized in RIPA lysis buffer; rabbit polyclonal anti-EB3 or control rabbit serum on Protein A/G agarose, lysate overnight at 4 °C; blot with anti-STIM2.
The target in experiment [2] is FLAG-EB3 (mouse) (UniProt Q6PER3). The experiment is described as follows: co-IP; HEK293T cells transfected with FLAG-EB3 and YFP-STIM2 or YFP-STIM2-IP/NN, preincubated 10 minutes in aCSF containing 2 mM Ca2+ (-Tg), RIPA lysate; anti-EB3 on Protein A/G agarose; blot with anti-STIM2 and anti-FLAG.
Experiment [3] has the same target. Kind of experiment: condition: only cells incubated in Ca2+-free aCSF with 400 µM EGTA and 1 µM Thapsigargin for 10 minutes before lysis; co-IP; HEK293T cells transfected with FLAG-EB3 and YFP-STIM2, preincubated 10 minutes in Ca2+-free aCSF with 400 µM EGTA and 1 µM Thapsigargin (+Tg, ER calcium store depletion), RIPA lysate; anti-EB3 on Protein A/G agarose; blot with anti-STIM2 and anti-FLAG.

Experiment [4] deals with GST-STIM2-CT (wild type STIM2 cytoplasmic part, aa248-C terminal) (UniProt Q9P246). The experiment is described as follows: pull-down; GST-fusion proteins immobilized on glutathion-agarose beads, incubated overnight at 4 °C with crude whole brain synaptosomal lysate (1% Triton, 130 mM NaCl, 50 mM Tris, pH 7.2); blot with anti-EB3; only the target purified.
In experiment [5] the target is GST-STIM2-IP/NN-CT (I688N, P689N) (UniProt Q9P246). The description is as above.

Take “STIM2 protein (from UniProt P83093 15-746)”: the binding result in experiment [1] is “binds”.

Regarding YFP-STIM2 (from UniProt Q9P246 15-746), the binding result was “binds” in experiment [2] and “no binding” in experiment [3].

For the substance “YFP-STIM2-IP/NN (I688N, P689N) (from UniProt Q9P246 15-746)”, the binding result in experiment [2] was “no binding”.

For EB3 protein (from UniProt Q6PER3 1-281), the binding entry in experiment [4] is on record as “binds”; in experiment [5], “no binding”.
